Results from PubChem BioAssay AID504466 (National Center for Advancing Translational Sciences (NCATS), 2011).
About 4,200 (1.3%) of roughly 330,000 compounds were called active. The shares of active, inactive and inconclusive entries below differ from those in the screen. Calls come from the whole dose curve; as a rule, active = well fitted activation curve with a large enough effect; inconclusive = small, poorly fitted or top-dose-only effect; inactive = no such curve, though single readings can be large or run the other way. A potency beside an inconclusive call is a rough fit, not a confirmed value.

Assay: qHTS screen for small molecules that induce genotoxicity in human embryonic kidney (HEK293T) cells expressing luciferase-tagged ELG1; note: nearly all actives have a fitted effect of over 60% in size
Settings: HEK293T ELG1-luciferase reporter, luminescence, 16 h; series mostly up to 46 µM
In short: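 Genotoxicity was scored as increased ELG1-luciferase reporter signal, measured by ONE-Glo luminescence (30 min, room temperature). Compound or vehicle exposure of the HEK293T reporter cells lasted 16 hr at 37°C.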
Potency is the fitted concentration of half-maximal effect; tags give direction and shape of the fitted curve.

SMILES	Potency
COc1ccc2c(c1)c(/C=N/Nc1ccc(C(=O)O)cc1)c(C)n2C	inconclusive: 18.3 µM [activator, partial curve]
COC(=O)c1ccccc1NC(=O)CSc1nnc(-c2ccc(C)cc2)o1	inconclusive: 18.4 µM [activator, partial curve]
COc1cccc(CC(=O)OCC(=O)N(C)CC(=O)Nc2ccc(Cl)c(C(F)(F)F)c2)c1	inactive
COc1ccc(-c2csc(NC(=O)C3CCCO3)n2)cc1 (stereo unspecified)	inconclusive: 18.4 µM [activator, partial curve, poor fit]
Cc1c(C(=O)Nc2cccnc2)oc2ccc(Br)cc12	active: 18.3 µM
Cc1ccn2c(NC3CCCCC3)c(-c3cccc(-c4cccc(Cl)c4)c3)nc2c1	inactive
CN(C)c1ccc(NC(=O)c2ccc3c(c2)nnn3C)cc1	inconclusive: 18.3 µM [activator, partial curve, poor fit]
CC(C)(C)NC(=O)Cn1nnc(-c2cccs2)n1	inconclusive: 20.6 µM [activator, single point]
Nc1ccc2c(c1)sc1ccccc12	inconclusive: 9.2 µM [activator, partial curve, poor fit]
Cc1cccc(OCc2nc(-c3nonc3N)no2)c1C	active: 10.3 µM
Cc1ccc(C(=O)NC2CCS(=O)(=O)C2)cc1S(=O)(=O)N1CCCC1 (stereo unspecified)	inactive
Cc1cc2nc3c(=O)[nH]c(=S)[nH]c3nc2cc1NC(=O)C(F)(F)F	inconclusive: 20.6 µM [activator, single point]
Cn1c(C(=O)NC2CCCCC2)cc2sccc21	inconclusive: 5.17 µM [activator, single point]
CC1CCCCC1NC(=O)c1ccc(N2CCCC2=O)cc1 (stereo unspecified)	inconclusive: 32.6 µM [activator, single point]
N#CC1=C(N)Oc2cc3c(cc2C1c1ccc(Cl)cc1)OCO3 (stereo unspecified)	inactive
Nc1ccc(C(=O)Oc2ccc([N+](=O)[O-])cc2)cc1	inconclusive: 20.6 µM [activator, partial curve]
Clc1ccc2c(N/N=C/c3ccc(Br)cc3)ccnc2c1	inconclusive: 32.6 µM [activator, partial curve, poor fit]
CCn1ncc(C2=NOC(C(=O)NCc3ccccc3)C2)c1C (stereo unspecified)	inconclusive: 16.4 µM [activator, partial curve, poor fit]
O=C(N/N=C/c1c(O)ccc2ccccc12)c1ccc(CO)nc1	inconclusive: 29.1 µM [activator, partial curve, poor fit]
Cc1ccc(-c2nnc(-c3ccc(Br)cc3)o2)o1	inconclusive: 8.2 µM [activator, partial curve]
COc1ccc(NC(=O)N/C=C/c2ccccc2)cc1	inconclusive: 8.2 µM [activator, partial curve]
Cc1ccc(-c2csc(N)n2)s1	inconclusive: 13 µM [activator, partial curve]

SMILES	Potency
CCCCC(CCC(=O)NNC(=O)Cc1ccccc1)C(=O)O (stereo unspecified)	inactive
CCCOc1ccc(C(=O)Nc2ccc(Cl)cn2)cc1	inconclusive: 0.891 µM [activator, full curve, poor fit]
O=C1c2cccc3c([N+](=O)[O-])ccc(c23)C(=O)N1CC1CCCO1 (stereo unspecified)	active: 20.6 µM
CS(=O)(=O)c1ccc(Cl)c(NC(=O)Cc2c(F)cccc2Cl)c1	inconclusive: 29.1 µM [activator, single point]
COc1ccc(NC(=O)c2ccccc2NC(=O)C2CCCO2)cc1 (stereo unspecified)	inconclusive: 20.6 µM [activator, partial curve, poor fit]
Cc1occc1C(=O)N/N=C/c1ccc2c(c1)OCO2	inconclusive: 1.64 µM [activator, full curve]
COc1ccc(NN=Nc2ccc([N+](=O)[O-])cc2)cc1	inconclusive: 3.26 µM [activator, partial curve]
C/C(=N\OC(=O)c1ccc(Cl)cc1)c1sc(-c2ccccc2)nc1C	inconclusive: 8.2 µM [activator, partial curve]
CC(C)(C)OC(=O)[C@H](Cc1ccccc1)NC(=O)c1nc[nH]c1C(=O)NC1CCN(C(=O)OC(C)(C)C)CC1	inactive
COc1ccccc1N1CCN(C(=O)c2sc3nc4n(c(=O)c3c2C)CCC4)CC1	inactive
Cc1cnc(NC(=O)c2cncc(Br)c2)s1	inconclusive: 2.06 µM [activator, partial curve]
CN(C)c1oc(-c2ccc(OCc3ccccc3)cc2)nc1C#N	active: 16.4 µM
COc1cc(-c2cc(C(=O)N3CCN(c4ccccn4)CC3)c3ccccc3n2)cc(OC)c1OC	inactive
Clc1ccc(OCc2nc(-c3ccncc3)no2)c(Cl)c1	active: 7.31 µM
C=C1C(O)[C@@H]2O[C@]3(CC[C@H](/C=C/C(C)[C@@H]4CC(C)=CC5(O[C@H](C[C@@](C)(O)CO)CCC5O)O4)O3)CC[C@H]2O[C@@H]1C(O)CC(C)[C@H]1OC2(CCCCO2)CCC1C (stereo partly specified)	inconclusive: 0.651 µM [activator, full curve]
O=C(NC(=S)Nc1cccnc1Cl)c1ccc(Cl)cc1	inconclusive: 3.55 µM [activator, single point]
COc1ccc(C)cc1NC(=O)CN(C)S(=O)(=O)c1cnc[nH]1	inactive
CCOc1ccc(NC(=O)Cn2cc(C(=O)CC)c3ccccc32)cc1	inconclusive: 23.1 µM [activator, single point]
COc1ccc(C2CC(c3ccc4ccccc4c3)=NN2C(=O)COC(=O)C2CCC(=O)N2)cc1 (stereo unspecified)	inconclusive: 4.11 µM [activator, full curve]
CN(C(=O)COC(=O)c1cccnc1Cl)C1CCCCC1	inconclusive: 29.1 µM [activator, partial curve, poor fit]
C=CCNc1nc(-c2ccc(O)c(C(N)=O)c2)cs1	inconclusive: 11.2 µM [activator, partial curve, poor fit]
CCOc1ccc(N(CC(=O)NCc2ccccc2C)S(C)(=O)=O)cc1	inconclusive: 20.6 µM [activator, partial curve, poor fit]

SMILES	Potency
S=C(c1ccc(-c2ccccc2Cl)o1)N1CCCCC1	inconclusive: 16.4 µM [activator, partial curve]
COC(=O)C[C@H](NC(=O)Cn1cnc(C(=O)Nc2ccc(C)c(C)c2)n1)C(=O)OC	inconclusive: 20.6 µM [activator, partial curve, poor fit]
CCCCN1C(=O)CC(Nc2ccc(CC)cc2)C1=O (stereo unspecified)	active: 16.4 µM
CN(CC(=O)Nc1ccccc1Cl)C(=O)c1cccc(S(=O)(=O)N2CCN(c3ccc(F)cc3)CC2)c1	active: 1.83 µM
C/C(NC(=O)c1ccccc1F)=C1\C(=O)C[C@@H]2[C@H]1C2(C)C	inconclusive: 11.6 µM [activator, single point]
CC1CCCCC12NC(=O)N(CC(=O)NC(=O)Nc1ccc3c(c1)OCCO3)C2=O (stereo unspecified)	inconclusive: 13 µM [activator, partial curve, poor fit]
CCOC(=O)C1CCCN(C(=O)c2cc(-c3ccccc3)on2)C1 (stereo unspecified)	inconclusive: 18.4 µM [activator, single point]
CCc1ccc2c(c1)C(=O)c1ccccc1C2=O	inconclusive: 14.6 µM [activator, partial curve]
O=C(COc1ccccc1Br)NC(=O)NC1CCCC1	inconclusive: 16.4 µM [activator, partial curve, poor fit]
c1cncc(-c2nc3ccccc3s2)c1	inconclusive: 25.9 µM [activator, partial curve, poor fit]
CCCNC(=O)Cn1cnc2sc(C(=O)Nc3ccc4c(c3)OCO4)c(C)c2c1=O	inconclusive: 25.9 µM [activator, single point]
CC1CCc2c(sc(/N=C/N(C)C)c2C#N)C1 (stereo unspecified)	inconclusive: 11.6 µM [activator, partial curve, poor fit]
C=CCn1c2ccccc2c(=O)c2cc(C#CC3(O)CCCCC3)ccc21	inconclusive: 2.31 µM [activator, partial curve]
Cc1cc2cc(C#N)c(SCC(=O)Nc3nonc3C)nc2cc1C	inconclusive: 23.1 µM [activator, single point]
COc1cc2c(cc1OC)-c1cc(Nc3ccc(N(C)C)cc3)nc(=O)n1CC2	inconclusive: 25.9 µM [activator, partial curve, poor fit]
COc1ccc(CSCC(=O)N/N=C/c2ccccc2O)cc1	inconclusive: 29.1 µM [activator, partial curve, poor fit]
Cc1cccc(NC(=S)NNC(=O)c2ccc3c(c2)OCO3)c1	inconclusive: 10.3 µM [activator, partial curve]
Oc1ccccc1N=Nc1ccccc1O	inconclusive: 13 µM [activator, partial curve]
COC(=O)Nc1nc2ccc(Sc3ccccc3)cc2[nH]1	inconclusive: 29.1 µM [activator, single point]
CCN1CCN(c2cc3nc(C)n(Cc4ccccc4)c(=O)c3cc2NC(=O)c2ccccc2F)CC1	inconclusive: 16.4 µM [activator, partial curve, poor fit]
COc1ccc(-n2c(-c3ccc(F)cc3)cnc2SCC(=O)NCc2ccco2)cc1	inconclusive: 16.4 µM [activator, partial curve, poor fit]
C/C(=N/NC(=O)c1ccccn1)c1c[nH]c2ccccc12	active: 10.3 µM
